GI50, inhibition and IC50 data for 23 compounds are collected here from ChEMBL document CHEMBL4339217, “Discovery of Pyrido[3',2':5,6]thiopyrano[4,3-d]pyrimidine-Based Antiproliferative Multikinase Inhibitors” (ACS Med Chem Lett, 2019).

By GI50 is commonly meant the concentration that inhibits growth by half. Read a low GI50 as more potent growth inhibition. One may read the inhibition as the share of the control response that was lost under treatment. A word on the IC50: it is the concentration that inhibits the measured activity by half.

For one test, the system named is MSTO-211H. As to the kind of experiment: Growth inhibition of human MSTO-211H cells incubated for 72 hrs by trypan blue assay. It counts as functional.
The next test has as its system A-431. As to the kind of experiment: Growth inhibition of human A431 cells incubated for 72 hrs by trypan blue assay. It counts as functional. The conditions noted are these: A-431, 72 h.
For another test, the system named is HUVEC. As to the kind of experiment: Growth inhibition of HUVEC incubated for 72 hrs by trypan blue assay. In kind it is functional. The conditions noted are these: Homo sapiens.
A further test deals with HeLa. As to the kind of experiment: Growth inhibition of human HeLa cells incubated for 72 hrs by trypan blue assay. It counts as functional.
For test [1], the target named is Proto-oncogene tyrosine-protein kinase Src (Homo sapiens) (UniProt P12931). As to the kind of experiment: Inhibition of recombinant human SRC at 10 uM using Ulight-Poly GAT[EAY(1:1:1)]n substrate incubated for 30 mins by LANCE assay relative to untreated control. (In general: In TR-FRET formats the signal depends on donor and acceptor labels being close together.)
Sequence of UniProt P12931 (P12931 whole entry, looked up): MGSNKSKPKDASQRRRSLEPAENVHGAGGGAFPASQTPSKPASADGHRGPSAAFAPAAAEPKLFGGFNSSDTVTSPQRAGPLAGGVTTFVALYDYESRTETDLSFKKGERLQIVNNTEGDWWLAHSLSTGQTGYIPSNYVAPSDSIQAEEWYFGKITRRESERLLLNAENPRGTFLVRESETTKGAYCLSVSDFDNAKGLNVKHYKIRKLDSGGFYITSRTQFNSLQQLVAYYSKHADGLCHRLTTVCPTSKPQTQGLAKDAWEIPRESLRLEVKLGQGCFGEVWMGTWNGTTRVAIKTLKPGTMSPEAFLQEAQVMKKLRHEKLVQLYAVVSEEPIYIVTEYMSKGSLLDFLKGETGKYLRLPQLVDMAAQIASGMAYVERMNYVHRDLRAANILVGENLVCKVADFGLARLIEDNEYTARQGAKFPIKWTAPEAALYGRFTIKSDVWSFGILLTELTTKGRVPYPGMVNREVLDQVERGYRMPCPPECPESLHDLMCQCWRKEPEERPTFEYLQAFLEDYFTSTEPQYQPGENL

Test [2] deals with T1, Aurora kinase A (Homo sapiens) (UniProt O14965).
T1 sequence (whole entry): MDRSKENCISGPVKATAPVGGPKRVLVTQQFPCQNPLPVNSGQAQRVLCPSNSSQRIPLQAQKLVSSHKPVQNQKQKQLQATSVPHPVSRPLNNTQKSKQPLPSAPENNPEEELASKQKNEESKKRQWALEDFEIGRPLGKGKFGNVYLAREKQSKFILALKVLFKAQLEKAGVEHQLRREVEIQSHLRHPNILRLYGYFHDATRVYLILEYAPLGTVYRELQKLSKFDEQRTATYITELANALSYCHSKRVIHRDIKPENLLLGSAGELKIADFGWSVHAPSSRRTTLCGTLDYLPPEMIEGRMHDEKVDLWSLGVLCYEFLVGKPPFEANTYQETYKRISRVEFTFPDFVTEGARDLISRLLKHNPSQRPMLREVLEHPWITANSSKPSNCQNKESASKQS
As to the kind of experiment: Inhibition of recombinant human aurora A at 10 uM using Ulight-RRRSLLE substrate incubated for 15 mins by LANCE assay relative to untreated control.

Test [3] deals with Platelet-derived growth factor receptor beta (Homo sapiens) (UniProt P09619). As to the kind of experiment: Inhibition of recombinant human PDGFRB at 10 uM using Ulight-Poly GAT[EAY(1:1:1)]n substrate incubated for 30 mins by LANCE assay relative to untreated control.
Sequence of UniProt P09619 (P09619 whole entry): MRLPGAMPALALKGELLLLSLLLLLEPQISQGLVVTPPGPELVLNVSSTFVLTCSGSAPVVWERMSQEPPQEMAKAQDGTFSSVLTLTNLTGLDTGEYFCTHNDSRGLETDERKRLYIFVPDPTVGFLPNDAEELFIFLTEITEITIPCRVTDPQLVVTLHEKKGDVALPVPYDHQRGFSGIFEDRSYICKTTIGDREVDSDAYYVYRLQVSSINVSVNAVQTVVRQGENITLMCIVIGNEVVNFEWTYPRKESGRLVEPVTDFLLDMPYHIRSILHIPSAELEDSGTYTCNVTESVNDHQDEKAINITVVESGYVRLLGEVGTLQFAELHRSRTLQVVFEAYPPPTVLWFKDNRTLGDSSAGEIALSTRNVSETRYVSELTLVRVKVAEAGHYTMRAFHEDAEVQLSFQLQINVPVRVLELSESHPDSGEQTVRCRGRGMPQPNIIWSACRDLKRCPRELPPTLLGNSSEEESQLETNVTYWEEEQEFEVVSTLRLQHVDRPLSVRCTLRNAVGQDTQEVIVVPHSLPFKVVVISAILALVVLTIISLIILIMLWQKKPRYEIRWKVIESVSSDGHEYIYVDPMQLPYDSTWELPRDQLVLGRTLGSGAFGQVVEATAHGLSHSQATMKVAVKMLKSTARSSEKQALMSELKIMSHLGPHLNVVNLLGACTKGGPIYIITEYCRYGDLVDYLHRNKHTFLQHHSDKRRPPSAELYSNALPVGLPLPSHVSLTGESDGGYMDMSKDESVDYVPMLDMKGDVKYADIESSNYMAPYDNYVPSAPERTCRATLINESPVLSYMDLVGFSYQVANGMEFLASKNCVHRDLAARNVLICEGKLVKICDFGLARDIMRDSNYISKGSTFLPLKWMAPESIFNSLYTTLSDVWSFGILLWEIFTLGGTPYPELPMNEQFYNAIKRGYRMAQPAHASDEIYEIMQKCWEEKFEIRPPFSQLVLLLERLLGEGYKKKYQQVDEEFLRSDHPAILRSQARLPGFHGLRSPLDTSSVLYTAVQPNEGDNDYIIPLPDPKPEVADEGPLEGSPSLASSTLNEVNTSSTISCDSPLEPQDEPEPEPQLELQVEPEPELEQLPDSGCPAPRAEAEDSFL
For test [4], the target named is Vascular endothelial growth factor receptor 2 (Homo sapiens, UniProt P35968). As to the kind of experiment: Inhibition of recombinant human KDR incubated for 1 hr using Tyr1 substrate by fluorimetry based Z'-LYTE-Tyr1 Peptide assay.
Sequence of UniProt P35968 (P35968 whole entry): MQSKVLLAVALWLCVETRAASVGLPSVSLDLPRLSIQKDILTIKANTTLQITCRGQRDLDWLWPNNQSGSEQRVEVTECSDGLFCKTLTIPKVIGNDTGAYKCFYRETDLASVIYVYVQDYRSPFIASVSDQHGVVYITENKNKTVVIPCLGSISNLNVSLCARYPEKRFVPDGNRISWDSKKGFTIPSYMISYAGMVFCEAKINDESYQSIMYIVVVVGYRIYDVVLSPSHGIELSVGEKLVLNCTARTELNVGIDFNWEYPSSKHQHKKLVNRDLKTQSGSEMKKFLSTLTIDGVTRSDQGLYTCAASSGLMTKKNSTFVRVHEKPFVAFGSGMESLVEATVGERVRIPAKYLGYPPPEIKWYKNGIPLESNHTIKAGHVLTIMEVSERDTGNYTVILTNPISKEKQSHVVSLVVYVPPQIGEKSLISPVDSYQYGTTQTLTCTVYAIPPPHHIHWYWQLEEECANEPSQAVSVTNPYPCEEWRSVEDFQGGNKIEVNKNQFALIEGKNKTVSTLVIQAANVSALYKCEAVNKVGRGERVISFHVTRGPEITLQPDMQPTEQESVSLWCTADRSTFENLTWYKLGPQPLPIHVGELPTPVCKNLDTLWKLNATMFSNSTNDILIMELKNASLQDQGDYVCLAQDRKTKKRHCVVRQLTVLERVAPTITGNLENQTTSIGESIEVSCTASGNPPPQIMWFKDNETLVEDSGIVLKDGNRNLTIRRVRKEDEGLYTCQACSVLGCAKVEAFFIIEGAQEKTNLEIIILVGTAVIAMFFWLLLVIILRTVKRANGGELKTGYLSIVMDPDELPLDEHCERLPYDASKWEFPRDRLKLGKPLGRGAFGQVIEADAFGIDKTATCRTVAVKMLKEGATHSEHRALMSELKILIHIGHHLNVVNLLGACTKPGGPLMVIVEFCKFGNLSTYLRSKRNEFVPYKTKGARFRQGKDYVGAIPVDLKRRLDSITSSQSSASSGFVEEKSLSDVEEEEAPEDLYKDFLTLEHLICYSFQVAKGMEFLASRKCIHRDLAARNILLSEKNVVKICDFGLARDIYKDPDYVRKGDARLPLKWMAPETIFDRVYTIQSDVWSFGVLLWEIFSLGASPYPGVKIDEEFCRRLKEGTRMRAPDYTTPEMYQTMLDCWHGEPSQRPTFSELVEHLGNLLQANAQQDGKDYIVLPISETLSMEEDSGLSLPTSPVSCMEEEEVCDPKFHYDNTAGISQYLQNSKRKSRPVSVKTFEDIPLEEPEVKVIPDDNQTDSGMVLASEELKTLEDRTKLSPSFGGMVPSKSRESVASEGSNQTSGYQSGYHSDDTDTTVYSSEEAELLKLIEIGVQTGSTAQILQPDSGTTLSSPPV
Test [5] deals with Cyclin-dependent kinase 1/cyclin B1 (Homo sapiens) (UniProt P06493+P14635). As to the kind of experiment: Inhibition of recombinant human CDK1/cyclin B at 10 uM using Ulight-CFFKNIVTPRTPPPSQGK-amide substrate incubated for 15 mins by LANCE assay relative to untreated control. In kind it is protein-complex assay.
Sequence of UniProt P06493 (P06493 whole entry, looked up): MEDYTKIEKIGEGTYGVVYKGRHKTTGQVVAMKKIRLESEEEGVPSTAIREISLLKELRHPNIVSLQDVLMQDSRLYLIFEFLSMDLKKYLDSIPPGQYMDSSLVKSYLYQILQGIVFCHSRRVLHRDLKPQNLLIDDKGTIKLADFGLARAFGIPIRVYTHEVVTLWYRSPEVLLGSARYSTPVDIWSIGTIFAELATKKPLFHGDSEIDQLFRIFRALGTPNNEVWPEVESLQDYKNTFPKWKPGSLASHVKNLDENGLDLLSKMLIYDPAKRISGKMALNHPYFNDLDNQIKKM
Sequence of UniProt P06493 (P14635 whole entry, looked up, further chain): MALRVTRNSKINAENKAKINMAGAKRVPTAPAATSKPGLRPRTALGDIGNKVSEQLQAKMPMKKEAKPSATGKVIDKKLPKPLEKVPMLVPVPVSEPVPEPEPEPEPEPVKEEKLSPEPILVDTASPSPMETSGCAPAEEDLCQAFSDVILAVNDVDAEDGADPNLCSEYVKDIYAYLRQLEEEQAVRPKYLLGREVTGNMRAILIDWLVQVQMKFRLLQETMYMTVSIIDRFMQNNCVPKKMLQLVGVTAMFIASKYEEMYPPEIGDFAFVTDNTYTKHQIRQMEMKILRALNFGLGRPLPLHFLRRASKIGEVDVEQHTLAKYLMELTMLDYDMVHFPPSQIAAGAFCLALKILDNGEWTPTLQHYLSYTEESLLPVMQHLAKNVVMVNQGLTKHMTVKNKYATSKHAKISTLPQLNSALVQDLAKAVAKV
The target of test [6] is Epidermal growth factor receptor (Homo sapiens) (UniProt P00533). As to the kind of experiment: Inhibition of recombinant human EGFR at 10 uM using Ulight-CAGAGAIETDKEYYTVKD substrate incubated for 15 mins by LANCE assay relative to untreated control.
Sequence of UniProt P00533 (P00533 whole entry): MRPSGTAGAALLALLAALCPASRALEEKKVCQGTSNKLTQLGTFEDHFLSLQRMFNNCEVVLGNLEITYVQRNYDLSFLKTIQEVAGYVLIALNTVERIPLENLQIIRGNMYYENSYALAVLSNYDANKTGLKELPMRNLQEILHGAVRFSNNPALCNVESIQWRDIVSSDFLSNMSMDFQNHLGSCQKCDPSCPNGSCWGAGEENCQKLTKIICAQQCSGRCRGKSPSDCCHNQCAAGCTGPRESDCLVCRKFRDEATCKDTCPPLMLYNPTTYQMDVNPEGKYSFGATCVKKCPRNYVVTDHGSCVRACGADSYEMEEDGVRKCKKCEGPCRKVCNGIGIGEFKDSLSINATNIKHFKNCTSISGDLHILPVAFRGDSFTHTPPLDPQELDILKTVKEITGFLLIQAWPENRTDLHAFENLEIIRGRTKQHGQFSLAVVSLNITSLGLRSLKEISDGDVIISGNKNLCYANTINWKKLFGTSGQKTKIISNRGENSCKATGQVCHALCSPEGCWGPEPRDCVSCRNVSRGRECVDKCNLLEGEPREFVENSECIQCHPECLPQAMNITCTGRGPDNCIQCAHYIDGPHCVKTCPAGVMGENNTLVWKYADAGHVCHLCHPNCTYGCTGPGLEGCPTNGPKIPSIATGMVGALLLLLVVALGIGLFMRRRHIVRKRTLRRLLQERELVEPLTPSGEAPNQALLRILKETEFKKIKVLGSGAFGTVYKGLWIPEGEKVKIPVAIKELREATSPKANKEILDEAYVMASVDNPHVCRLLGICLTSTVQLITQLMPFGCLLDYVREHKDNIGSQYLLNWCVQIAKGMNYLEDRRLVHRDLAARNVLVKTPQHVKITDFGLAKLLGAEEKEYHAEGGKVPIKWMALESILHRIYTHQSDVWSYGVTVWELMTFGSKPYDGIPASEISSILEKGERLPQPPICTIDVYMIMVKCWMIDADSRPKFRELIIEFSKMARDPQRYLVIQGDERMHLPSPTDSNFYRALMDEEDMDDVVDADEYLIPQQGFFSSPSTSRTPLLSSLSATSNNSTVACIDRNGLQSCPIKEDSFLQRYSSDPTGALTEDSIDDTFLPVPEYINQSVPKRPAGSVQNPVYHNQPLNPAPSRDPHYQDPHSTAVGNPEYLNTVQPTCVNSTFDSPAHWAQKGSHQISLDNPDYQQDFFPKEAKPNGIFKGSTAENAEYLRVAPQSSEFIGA

As to `c1ccc(Nc2ncc3c(n2)-c2cccnc2SC3)cc1`, the GI50 in the test with MSTO-211H was found to be 0.93 µM; in the test on A-431, 0.95 µM; in the test with HUVEC, 0.53 µM; in the test on HeLa, 1.25 µM.

Turning to `COc1ccc(CNc2ncc3c(n2)-c2cccnc2SC3)cc1`, the GI50 in the test with MSTO-211H was determined as 8.63 µM; in the test with A-431, 9.34 µM; in the test with HUVEC it was 16.3 µM; in the test on HeLa, 2.71 µM.

In the case of `CN(c1ccccc1)c1ncc2c(n1)-c1cccnc1SC2`, the concentration for 50% growth inhibition (GI50) with MSTO-211H was 18.1 µM; with A-431, 13 µM; in the test on HUVEC, 16 µM; in the test on HeLa, above 20 µM.

On to `Clc1ccc(CNc2ncc3c(n2)-c2cccnc2SC3)cc1`, for which the GI50 in the test on MSTO-211H is 7.87 µM; in the test on A-431, 8.38 µM; with HUVEC it was 14.3 µM; in the test with HeLa, 5.42 µM.

For the compound `COc1cccc(Nc2ncc3c(n2)-c2cccnc2SC3)c1`, the GI50 came to 1.08 µM in the test on MSTO-211H, 1.57 µM with A-431, 0.39 µM in the test with HUVEC and 0.78 µM in the test on HeLa.

As for `Brc1cccc(Nc2ncc3c(n2)-c2cccnc2SC3)c1`, the GI50 in the test with MSTO-211H was determined as 4.03 µM; with A-431 it was 9.06 µM; in the test on HUVEC it was 3.11 µM; with HeLa, 5.1 µM.

As for `COc1ccc(-c2ncc3c(n2)-c2cccnc2SC3)cc1`, the concentration for 50% growth inhibition (GI50) with MSTO-211H, in the test with A-431, in the test on HUVEC and with HeLa was above 20 µM each time.

Regarding `c1ccc(CNc2ncc3c(n2)-c2cccnc2SC3)cc1`, the GI50 was found to be 13.8 µM in the test on MSTO-211H, 11.4 µM with A-431, 14.8 µM in the test on HUVEC and 9.65 µM in the test with HeLa.

For the compound `COc1cc(CNc2ncc3c(n2)-c2cccnc2SC3)cc(OC)c1OC`, the concentration for 50% growth inhibition (GI50) in the test with MSTO-211H stood at 5.4 µM; with A-431 it was 2.73 µM; with HUVEC, 7.92 µM; in the test on HeLa, 1.57 µM.

Regarding `c1ccc(-c2ncc3c(n2)-c2cccnc2SC3)cc1`, the 50% growth inhibitory concentration (GI50) in the test on MSTO-211H was above 20 µM; in the test with A-431 it was above 20 µM; with HUVEC, 17.1 µM; in the test with HeLa, above 20 µM.

With `Cc1cc(C)c(/C=C2\C(=O)Nc3ccccc32)[nH]1` [SEMAXANIB], the 50% growth inhibitory concentration (GI50) with MSTO-211H was determined as 27 µM; in the test on A-431, 37 µM; in the test with HeLa, 38 µM.

For the compound `Clc1ccc(-c2ncc3c(n2)-c2cccnc2SC3)cc1`, the 50% growth inhibitory concentration (GI50) is 11.6 µM in the test with MSTO-211H, 5.83 µM in the test with A-431, 10.2 µM in the test with HUVEC and 16 µM in the test on HeLa.

As for `COc1cccc(CNc2ncc3c(n2)-c2cccnc2SC3)c1`, the GI50 in the test on MSTO-211H stood at 9.5 µM; in the test with A-431, 3.63 µM; with HUVEC, 1.46 µM; with HeLa it was 0.45 µM.

For `Clc1ccc(Nc2ncc3c(n2)-c2cccnc2SC3)cc1`, the GI50 in the test on MSTO-211H is 2.52 µM; in the test on A-431 it was 2.29 µM; in the test on HUVEC it was 2.55 µM; in the test on HeLa, 2.33 µM.

On to `COc1ccc(CNc2ncc3c(n2)-c2cccnc2SC3)cc1OC`, for which the GI50 in the test with MSTO-211H was 5.73 µM; in the test with A-431, 8.93 µM; in the test with HUVEC, above 20 µM; in the test on HeLa it was 9.83 µM.

In the case of `COc1ccc(Nc2ncc3c(n2)-c2cccnc2SC3)cc1`, the GI50 in the test with MSTO-211H is 0.13 µM; with A-431 it was 0.12 µM; in the test with HUVEC, 0.11 µM; in the test with HeLa it was 0.084 µM. For the same compound, the inhibition in test [1] stood at 57%; in test [2], 100%; in test [3], 89%; in test [5], 98%; in [6], 0%. The IC50 in [4] was found to be 0.52 µM.

`COc1ccc(Nc2ncc3c(n2)-c2cccnc2SC3)cc1OC`: the concentration for 50% growth inhibition (GI50) stood at 0.66 µM in the test with MSTO-211H, 0.67 µM in the test on A-431, 1.93 µM in the test on HUVEC and 0.54 µM with HeLa. The inhibition in [1] was determined as 97%; in test [2] it was 98%; in test [3], 79%; in test [5], 97%; in [6], 56%. Besides, the IC50 in [4] was found to be 0.19 µM.

As for `Fc1cccc(Nc2ncc3c(n2)-c2cccnc2SC3)c1`, the GI50 stood at 0.73 µM in the test with MSTO-211H, 1.23 µM with A-431, 0.28 µM in the test on HUVEC and 1.1 µM in the test on HeLa.

In the case of `Clc1cccc(CNc2ncc3c(n2)-c2cccnc2SC3)c1`, the concentration for 50% growth inhibition (GI50) amounted to 8.6 µM with MSTO-211H, 4.76 µM with A-431, 5.55 µM with HUVEC and 0.45 µM in the test with HeLa.

With `COc1cc(Nc2ncc3c(n2)-c2cccnc2SC3)cc(OC)c1OC`, the GI50 with MSTO-211H is 1.3 µM; with A-431 it was 0.75 µM; with HUVEC, 1.3 µM; in the test on HeLa it was 1.85 µM. In addition, the inhibition in test [1] was found to be 99%; in test [2], 91%; in test [3], 82%; in test [5] it was 93%; in [6], 72%.

`FC(F)(F)c1cccc(Nc2ncc3c(n2)-c2cccnc2SC3)c1`: the GI50 with MSTO-211H came to 1.13 µM; in the test on A-431, 3.98 µM; in the test with HUVEC it was 4.95 µM; with HeLa, 0.83 µM.

In the case of `Brc1cccc(CNc2ncc3c(n2)-c2cccnc2SC3)c1`, the GI50 stood at 0.78 µM with MSTO-211H, 3.4 µM in the test on A-431, 0.35 µM with HUVEC and 0.47 µM in the test with HeLa.

For `Clc1cccc(Nc2ncc3c(n2)-c2cccnc2SC3)c1`, the concentration for 50% growth inhibition (GI50) in the test on MSTO-211H is 6.67 µM; with A-431, 9.4 µM; with HUVEC it was 4.39 µM; in the test with HeLa, 8.3 µM.
